Assay results taken from PubChem BioAssay AID463173 (ICCB-Longwood Screening Facility, Harvard Medical School, 2010).
Out of some 52,000 compounds screened, about 4,300 (8.3%) were called active. Cut-off read from the data, not from the text of the source: active = survival mostly below about 52% (no sharp cut-off); inactive = mostly above about 56%. This is one part of the list.

Tested on: DeltatarO mutant
Assay: growth inhibition of S. aureus wild type versus tarO mutant, primary screen, teichoic acid synthesis inhibitors, RN4220, OD600 (AID 463173)
Conditions: OD600, 18 h, hits give low values, screened at 18.75 µg/mL (by protocol)

SMILES | survival
COc1ccc(NC(=O)c2c(C)oc3ccc(O)c(CN4CCCC(C)C4)c23)cc1Cl (stereo not drawn) | active: 52%
Cc1ccc(-n2ncc(C(=O)N3CCc4ccccc4C3)c2C2CCN(C(=O)OC(C)(C)C)CC2)cc1C | inactive: 76%
Cc1ccc(N2CCN(C(=O)CCc3c(C)nc4ncnn4c3C)CC2)c(C)c1 | inactive: 91%
Cc1ccc(S(=O)(=O)c2cn(C)c3cc(N4CCCC4)c(F)cc3c2=O)c(C)c1 | inactive: 67%
CCc1ccc(NC(=O)c2cnn(-c3c(C)cccc3C)c2C2CCNCC2)cc1 | inactive: 89%
CCOc1cc(C(=O)Nc2c(NC)c3ccccc3oc2=O)cc(OCC)c1OCC | inactive: 135%
O=c1[nH][nH]c(=S)n2nc(-c3ccccc3)cc12 | inactive: 74%
CN(C1CCCCC1)C(c1ccc(F)cc1)c1nnnn1C1CCCCC1 (stereo not drawn) | inactive: 83%
Cc1ncc(CO)c2c1Oc1nc(-c3ccccc3F)nc(SCC(=O)N3CCCCC3)c1C2 | inactive: 67%
COC(=O)c1cccc(S(=O)(=O)N2CCC(NC(=O)Nc3cccc(F)c3)CC2)c1 | inactive: 94%
COc1ccc(NC(=O)CSc2nc3c(c(=O)[nH]2)CN(Cc2ccccc2)CC3)cc1Cl | inactive: 73%
CCc1ccc(NC(=O)Cn2c(=O)n(Cc3ccccc3)c(=O)c3oc4ccccc4c32)cc1 | inactive: 71%
COC(=O)c1ccc(OC)c(CSc2nnc(COc3cc(C)cc(C)c3)o2)c1 | inactive: 94%
O=C(NS(=O)(=O)c1ccc(N=NN2CCOCC2)cc1)C12CC3CC(CC(C3)C1)C2 | inactive: 92%
COc1cccc2cc(-c3nc(Cl)c4c5c(sc4n3)CC(C)CC5)c(=O)oc12 (stereo not drawn) | inactive: 68%
O=C(NCCc1c[nH]c2ccccc12)Nc1ccccc1C(F)(F)F | inactive: 86%
COC(=O)c1cc(NC(=O)Cn2ncc3c2-c2ccccc2OC3)cc(C(=O)OC)c1 | inactive: 72%
CCN1CCCC1CN(Cc1cc2cc(OC)ccc2[nH]c1=O)C(=O)Nc1ccccc1 (stereo not drawn) | inactive: 91%
Cc1cccc(CS(=O)(=O)CC2Nc3ccc(C(=O)NCc4ccccc4Cl)cc3NC2=O)c1 (stereo not drawn) | inactive: 77%
COc1ccc2sc(N(Cc3cccnc3)C(=O)c3ccco3)nc2c1 | active: -2%
CCc1cccc(C)c1NC(=O)Nc1csc2c1CCCC2 | inactive: 72%
CCOC(=O)c1ccc(N2C(=O)c3[nH]nc(-c4ccc(OC)cc4)c3C2c2ccc(C)cc2)cc1 (stereo not drawn) | inactive: 81%

SMILES | survival
CCOCCCNC(=O)c1c(NC(=O)c2cc(=O)c3cc(C)c(C)cc3o2)sc2c1CCC2 | inactive: 113%
CCOc1ccc(N2CC(c3nc4ccccc4n3CCC3CCCCC3)CC2=O)cc1 (stereo not drawn) | active: 33%
COc1ccc(CN2C(=O)N(c3ccc(F)cc3)C(=O)C2CC(=O)Nc2ccccc2)cc1 (stereo not drawn) | inactive: 77%
CC12COC3(C(=O)Nc4ccccc4)CC1CCC32C (stereo not drawn) | inactive: 100%
CCCNC(=O)C1CCN(c2cc(C)nc3c(-c4ccc(OC)c(OC)c4)c(C)nn23)CC1 | inactive: 82%
Cc1ccc(CCNc2nc3ccccc3c3nc(-c4ccccc4)nn23)cc1 | active: 44%
Cc1oc(-c2ccc(Cl)cc2)nc1CSc1nnc(C)n2c1cc1sccc12 | inactive: 89%
Cc1ccn2c(Nc3ccc4c(c3)OCO4)c(-c3ccco3)nc2c1 | inactive: 73%
N#Cc1c(C(F)(F)F)cc(-c2cccs2)nc1SCC(=O)Nc1ccc(Cl)cc1 | inactive: 62%
O=C(Cn1c(=O)n(Cc2ccc(F)cc2)c(=O)c2sc3ccccc3c21)NCc1ccccc1Cl | inactive: 95%
COc1ccc(N2CCN(C(CNS(=O)(=O)c3c(C)cc(C)cc3C)c3ccco3)CC2)cc1 (stereo not drawn) | inactive: 80%
Cc1ccc(-n2c(=O)c3c(C)c(C)sc3n(CC(=O)c3ccc(Cl)cc3)c2=O)cc1C | inactive: 53%
Cc1ccc2c(c1)N(CC(=O)N1CCCc3ccccc31)C(=O)CO2 | inactive: 106%
CCCn1c2ccccc2c2cnn(CC(=O)N(CCCOC(C)C)Cc3ccco3)c(=O)c21 | inactive: 87%
COc1cc(C(=O)Nc2ccc(OCc3cc(=O)n4ccc(C)cc4n3)cc2)cc(OC)c1OC | active: 8%
Cc1cc(NC(=O)CCC(=O)N(Cc2ccccc2)C2(C(=O)NC3CCCCC3)CCCC2)no1 | inactive: 95%
CCOC1=CC2=C(CC(C)(C)CC2=O)OC1N(C)C (stereo not drawn) | inactive: 97%
CC(C)(C)OC(=O)N1CCC(c2c(C(=O)NCCN3CCOCC3)cnn2-c2ccccc2)CC1 | inactive: 74%
COc1ccc2oc(-c3ccc(C)c(NC(=O)c4ccc(N5CCCCC5)c([N+](=O)[O-])c4)c3)nc2c1 | inactive: 79%
COc1ccc(CNC(=O)CN2CCSc3ccccc32)c(OC)c1 | inactive: 120%
CCN(CC)C(=O)Cn1c(SCC(=O)Nc2ccc(C)c(C)c2)nc2ccccc21 | inactive: 128%
COc1ccccc1NC(=O)C1=C(C)Nc2ncnn2C1c1ccc[nH]1 (stereo not drawn) | inactive: 126%

SMILES | survival
CCOC(=O)c1c(Nc2ccccc2)nnc(-c2ccccc2)c1-c1ccccc1 | active: 6%
O=C(Cn1c(=O)oc2ccccc21)NCc1ccc(Cl)cc1 | inactive: 95%
CCN(c1ccccc1)S(=O)(=O)c1cc(C(=O)Nc2ccc(Br)cc2)ccc1F | active: 6%
CCC(Cc1ccccc1)NC(=O)c1csc2c1CCCCC2 (stereo not drawn) | inactive: 125%
COc1cccc(Cn2c(SCc3ccc(C(=O)N4CCC(C)CC4)cc3)nc3ccncc32)c1 | inactive: 120%
CCOc1ccc(N=C(c2ccccc2)N2CCOCC2)cc1 | inactive: 69%
COc1ccc2c(C)cc(SCC(=O)Nc3nsc(-c4ccc(C(C)(C)C)cc4)n3)nc2c1 | inactive: 56%
COc1cc(NC(=O)CCCSc2nc(-c3ccco3)cc(C(F)(F)F)n2)cc(OC)c1OC | active: 38%
Cc1cc(-c2nc3ncccc3o2)ccc1NC(=O)COc1ccc(C(C)(C)C)cc1 | active: 32%
CCc1ccc(NC(=O)CSc2nnc(-c3nonc3NC(C)=O)n2-c2ccccc2)cc1 | active: 43%
Cc1c2cnn(-c3ccccc3)c(=O)c2c(C)n1CC(=O)NCc1ccc(Cl)cc1 | inactive: 87%
CCOc1ccc(Nc2c(S(=O)(=O)c3ccc(C)cc3)cnc3ccccc23)cc1 | active: 43%
CCN1CCCC1CNCC(=O)Nc1ccc(C)c(Br)c1 (stereo not drawn) | inactive: 93%
Cc1ccc(-n2ncc3c(NCCc4ccccc4)ncnc32)cc1 | inactive: 87%
Cc1cc2oc(C(=O)N(Cc3ccccc3)C3CCS(=O)(=O)C3)cc(=O)c2cc1C (stereo not drawn) | inactive: 49%
Cc1ccccc1C(=O)Nc1ccccc1C(=O)OCc1cc(=O)n2nc(C3CC3)sc2n1 | inactive: 120%
O=C(NC1CCSC1=O)c1ccc(Br)cc1 (stereo not drawn) | inactive: 92%
CCc1ccc(-n2c(=O)c3cccnc3n2CC(=O)N(CC)c2cccc(C)c2)cc1 | inactive: 94%
COc1cccc(C(=O)Nc2ccc3c(c2)CCCN3C(=O)c2cccs2)c1OC | inactive: 81%
Cc1ccc(NC(=O)CN2C(=O)C(c3ccccc3)=NC2(C)C)cc1C | inactive: 82%
Fc1ccc(-n2ncc3c(Nc4ccc(Oc5ccc(Cl)cc5)cc4)ncnc32)cc1 | inactive: 77%
CC1=C(C(N)=O)C(c2ccc(C(C)C)cc2)n2nc(SCc3ccccc3F)nc2N1 (stereo not drawn) | inactive: 80%

SMILES | survival
CCn1cc2nc(SCc3cccc(C(F)(F)F)c3)n(CCc3ccccc3)c(=O)c2n1 | inactive: 79%
COCCn1c(-c2ccccc2)cnc1N | inactive: 82%
CCOc1ccc(NC(=O)Cn2cnc3nc4c(cc3c2=O)CCCC4)cc1 | inactive: 88%
COc1ccc(CCNC(=O)Cn2c(C)c3cnn(-c4ccccc4)c(=O)c3c2C)cc1OC | inactive: 81%
Cc1c(CCNC(=O)c2ccc(C(F)(F)F)cc2)sc2nc(-c3ccc(F)cc3)nn12 | inactive: 81%
COc1ccc(-c2cc(C)no2)cc1S(=O)(=O)Nc1cccc(C(F)(F)F)c1 | inactive: 83%
COC(=O)c1c(NC(=O)c2ccc(S(=O)(=O)N3CCCCC3)cc2)sc2c1CCN(C)C2 | inactive: 70%
COc1ccc(CCNC(=O)CCCn2c(=O)c3ccccc3n(CC(=O)Nc3c(C)cc(C)cc3C)c2=O)cc1OC | inactive: 82%
COC(=O)c1ccc(OC)c(Cn2c(=O)n(-c3cccc(Cl)c3)c(=O)c3c2c2cc(C)ccc2n3C)c1 | inactive: 78%
CCOC(=O)c1c(-c2ccc(C)cc2)csc1NC(=O)c1ccc(C(C)(C)C)cc1 | inactive: 53%
CCc1ccc(NC(=O)CCS(=O)(=O)c2ccc3c(c2)oc(=O)n3C)cc1 | inactive: 90%
N#CCC(=O)N1CCCCCC1 | inactive: 84%
Cc1ccc(-n2c(SCc3nc(-c4ccccc4C)no3)nnc2-c2ccncc2)cc1C | inactive: 100%
Cc1cccc(-c2nc3sc(C)cc3c(=O)o2)c1 | inactive: 94%
Cc1ccc(N2CC(c3nnc(Cc4ccc(F)cc4Cl)o3)CC2=O)cc1 (stereo not drawn) | inactive: 57%
CCCCNC(=O)c1ccc(-c2nc(CS(=O)(=O)c3ccc(C)cc3)c(C)o2)cc1 | inactive: 75%
CC1=C(c2ccc(Cl)cc2)S(=O)(=O)N=C1N1CCN(c2cccc(C)c2)C(C)C1 (stereo not drawn) | inactive: 89%
COC(=O)CNC(c1ccccc1)c1cc(Br)ccc1NC(=O)c1cc(OC)c(OC)c(OC)c1 (stereo not drawn) | inactive: 66%
Cc1ccc(-c2csc(=Nc3ccccc3)n2CCCO)cc1 | active: 5%
CCOC(=O)c1ccc(NC(=O)Cn2nnc(-c3ccc(C(F)(F)F)cc3)n2)cc1 | inactive: 87%
CNC(=O)c1ccc(NC(=O)c2nsc3ccccc23)cc1 | inactive: 48%
CCOC(=O)c1ccc(OCC2c3cc(OC)c(OC)cc3CCN2C(=O)Cc2ccc(OC)c(OC)c2)cc1 (stereo not drawn) | inactive: 79%
